# Screen size: about 48,000 compounds; about 450 (0.94%) were called active. The inconclusive results got no clear call from the source; some entries with a clear call stand among them for comparison. The call rests on the fitted dose curve; in most records, active means well fitted inhibition curve with a large enough effect; inconclusive means small, poorly fitted or top-dose-only effect; inactive means no such curve, though single readings can be large or run the other way. Potencies beside an inconclusive call are fits to weak or partial responses and may not hold up.
# Assay: Primary qHTS for Identification of Small Molecule Inhibitors of Huntingtin Promoter Activity; further: nearly all actives have a fitted effect of over 50% in size
# Settings: HEK293 HTT promoter firefly luciferase reporter (activity 0% = vehicle and -100% = no light), 24 h; series mostly up to 57.5 µM
# How it was run: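 Firefly luciferase signal from promoter-reporter HEK293 cells was scaled between vehicle (0%) and zero RLU (-100%). Compounds were tested at final concentrations of up to 57.5 uM over 24 h at 37 degrees C. PTC124 at 50 uM final served as control inhibitor.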
# Potency means the concentration at half of the fitted maximal effect; tags describe the fitted curve by direction and shape.
row,Compound,Potency
1,COc1ccc(-c2onc(C)c2C)cc1S(=O)(=O)N(C)Cc1ccccc1,"inconclusive: 20 µM [inhibitor, partial curve, poor fit]"
2,Cc1cc(C)c2c(CC(=O)N(Cc3ccc(Cl)cc3)Cc3ccco3)coc2c1,"inconclusive: 31.6 µM [inhibitor, single point]"
3,Cc1ccc(NC(=O)Cn2cc(S(=O)(=O)Cc3ccc(F)cc3)c3ccccc32)cc1Cl,"inconclusive: 22.4 µM [inhibitor, single point]"
4,N#Cc1c(-n2ncnc2-c2ccc(F)cc2)sc2c1CCCCC2,"inconclusive: 39.8 µM [inhibitor, single point]"
5,O=C(CSCc1cnn(-c2ccccc2)c1-n1cccc1)NCc1cccc(Cl)c1,"inconclusive: 31.6 µM [inhibitor, single point]"
6,O=C(C1CCN(S(=O)(=O)c2ccc(Br)s2)CC1)N1CCN(c2cccc(C(F)(F)F)c2)CC1,"inconclusive: 31.6 µM [inhibitor, partial curve, poor fit]"
7,Cc1ccc(S(=O)(=O)Nc2ccc3nc(-c4ccc(F)cc4)oc3c2)cc1,inactive
8,COc1cc(NC(=O)Cn2c(=O)ccc3cc(S(=O)(=O)N4CCCC4)ccc32)cc(OC)c1,"inconclusive: 20 µM [inhibitor, single point]"
9,COc1ccc(/C=C\c2onc(C)c2S(=O)(=O)N2CCC(C(=O)Nc3cccc(OC)c3)CC2)cc1,"inconclusive: 14.1 µM [inhibitor, partial curve, poor fit]"
10,COc1cc(Nc2ncc3c(n2)CCN(Cc2cccc(C)c2)C3)cc(OC)c1,"inconclusive: 25.1 µM [inhibitor, single point]"
11,COc1ccc(S(=O)(=O)Nc2cc(-c3c(O)ccc4ccccc34)c(O)c3ccccc23)cc1,"inconclusive: 27.3 µM [inhibitor, partial curve, poor fit]"
12,CCc1ccccc1NC(=O)Cn1nc(C(F)(F)F)c2c1CCC2,inactive
13,CCS(=O)(=O)c1ncc(Cl)c(C(=O)NCc2ccc(OC)cc2)n1,"inconclusive: 20 µM [inhibitor, partial curve, poor fit]"
14,O=C1CN(C(=O)COc2ccc(Cl)cc2Cl)C(c2ccccc2)c2cc(F)ccc2N1 (stereo not given),"inconclusive: 35.5 µM [inhibitor, single point]"
15,CCOc1ccccc1CNC(=O)CCCn1ccc2cc(S(=O)(=O)N3CCCC3)ccc21,"inconclusive: 25.1 µM [inhibitor, partial curve, poor fit]"
16,Cc1ccc(Nc2c(C(C)C)c(C)c(C#N)c3nc4ccccc4n23)cc1,"inconclusive: 39.8 µM [inhibitor, single point]"
17,CCN(CC)C(=O)C1CCN(S(=O)(=O)c2c(C)noc2/C=C/c2cccc(OC)c2)CC1,"inconclusive: 14.1 µM [inhibitor, partial curve]"
18,CCOc1ccc(NC(=O)c2cc(S(=O)(=O)NC3CCCCCC3)ccc2F)cc1,"inconclusive: 39.8 µM [inhibitor, partial curve, poor fit]"

row,Compound,Potency
1,COc1ccc2c(c1)CCc1c(C(=O)Nc3c(C)nn(Cc4ccccc4)c3C)noc1-2,"inconclusive: 25.1 µM [inhibitor, single point]"
2,CCOc1ccccc1NC(=O)CSc1nccn1-c1cccc(C)c1,"inconclusive: 39.8 µM [inhibitor, single point]"
3,Cc1ccc(S(=O)(=O)C(CNC(=O)C(=O)NCCc2ccccc2)c2cccs2)cc1 (stereo not given),"inconclusive: 25.1 µM [inhibitor, partial curve, poor fit]"
4,Cc1cccc(CNC(=O)Cn2ccc3cc(S(=O)(=O)N4CCCCCC4)ccc32)c1,"inconclusive: 39.8 µM [inhibitor, single point]"
5,COc1ccc(-c2nc3n(n2)C(c2ccc(OC)c(OC)c2)C(C(=O)Nc2cccnc2)=C(C)N3)cc1 (stereo not given),"inconclusive: 39.8 µM [inhibitor, single point]"
6,C[C@@]12C[C@@]3(O)O[C@@H](O1)[C@]1(COC(=O)c4ccccc4)[C@@H]3C[C@@]12O[C@@H]1O[C@H](CO)[C@@H](O)[C@H](O)[C@@H]1O,inactive
7,CCCCN(CC)C(=O)C1CCCN(c2ncnc3onc(C)c23)C1 (stereo not given),"inconclusive: 15.8 µM [inhibitor, partial curve]"
8,CO[C@H]1C[C@@H]2CC[C@@H](C)[C@@](O)(O2)C(=O)C(=O)N2CCCC[C@@H]2C(=O)O[C@H]([C@H](C)C[C@@H]2CC[C@H](OCCO)[C@H](OC)C2)CC(=O)[C@H](C)C=C(C)[C@@H](O)[C@@H](OC)C(=O)[C@H](C)C[C@H](C)C=CC=CC=C1C,"inconclusive: 2.73 µM [inhibitor, partial curve, poor fit]"
9,CCc1c(C)nc2nncn2c1NCc1ccc(Cl)cc1,"inconclusive: 14.1 µM [inhibitor, partial curve, poor fit]"
10,COc1cc(CNCCSc2nnnn2C)cc(Cl)c1OCc1ccccc1,inactive
11,Cc1oc2ncn(CC(C)C)c(=O)c2c1C(=O)NCCc1ccc(Cl)cc1,"inconclusive: 39.8 µM [inhibitor, single point]"
12,Cc1ccc(CNC(=O)c2ccc3c(c2)CCN3S(=O)(=O)c2ccccc2)cc1,"inconclusive: 28.2 µM [inhibitor, single point]"
13,COc1cc(C)c(Sc2cnc(NC(=O)c3ccc(CNC(C)C(C)(C)C)cc3)s2)cc1C(=O)N1CCN(C(C)=O)CC1 (stereo not given),inactive
14,CCc1ccc(CN(Cc2ccco2)C(=O)COc2ccccc2Cl)cc1,"inconclusive: 22.4 µM [inhibitor, partial curve]"
15,COc1ccccc1CNC(=O)c1ccc(-c2nc(CS(=O)c3ccc(C)cc3)c(C)o2)cc1 (stereo not given),"inconclusive: 25.1 µM [inhibitor, single point]"
16,COc1ccc(S(=O)(=O)Nc2ccc3c(c2)sc(=O)n3C)cc1Cl,"inconclusive: 12.6 µM [inhibitor, partial curve, poor fit]"
17,CC(C)n1nc(-c2ccc3oc(N)nc3c2)c2c(N)ncnc21,"inconclusive: 0.0039 µM [inhibitor, full curve]"

# From PubChem BioAssay AID1508623 (National Center for Advancing Translational Sciences (NCATS), 2021)
